Measurements from a collection of fitness landscapes (doi:10.1016/j.celrep.2020.107928).
Whole data set: some 81,000 sequences, median “one-hybrid fitness for binding NBS DNA” near -0.1, cut for the highest 2% near 0.36. This is one part of the list.

B1: Caulobacter ParB omega fusion; a variant is named by its letters at X, in order, B8GW30 (parent)
chain: MESVVVGEPGMSEGRRGLGRGLSALLGEVDAAPAQAPGEQLGGSREAPIEILQRNPDQPRRTFREEDLEDLSNSIREKGVLQPILVRPSPDTAGEYQIVAGERAWRAAQRAGLKTVPIMVRELDDLAVLEIGIIENVQRADLNVLEEALSYKVLMEKFERTQENIAQTIGKSXSHVANXMRLLXLPDEVQSYLVSGELTAXHARAIAAAADPVALAKQIIEGGLSVRETEALARKAPNLSAGKSKGGRPPRVKDTDTQALESDLSSVLGLDVSIDHRGSTGTLTITYATLEQLDDLCNRLTRGI

Variants of: B1
Test: one-hybrid fitness for binding NBS DNA (the Noc-binding site; scaled: cognate 1, non-cognate 0); higher = stronger binding
Settings: with NBS DNA site
In short: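 The reporter was HIS3, with the binding site 19 bp from the promoter, in E. coli USO used for bacterial one-hybrid selection of Caulobacter ParB libraries with four specificity codons randomised. Growth was on M9 lacking histidine, with 0.1 mM IPTG and 5 mM 3-AT, for 48 hours at 37°C. Illumina sequencing covered plasmids before and after selection; three replicate libraries were pooled and variants with under 10 reads dropped. A fitness score is the log change in variant-to-wild-type read ratio, rescaled to the cognate and non-cognate references.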

Variant | one-hybrid fitness for binding NBS DNA
HPML | ≤ 0.2
SYIG | ≤ 0.2
PEIW | ≤ 0.2
MQSS | ≤ 0.2
PEYC | ≤ 0.2
AYPL | ≤ 0.2
SSMT | ≤ 0.2
YCGR | ≤ 0.2
IVDS | ≤ 0.2
FSVG | ≤ 0.2
DKLG | ≤ 0.2
AMWF | ≤ 0.2
AGQS | ≤ 0.2
QDPK | ≤ 0.2
AETA | ≤ 0.2
CWAM | ≤ 0.2
HTMY | ≤ 0.2
HPCR | ≤ 0.2
NMAN | ≤ 0.2
KWKV | ≤ 0.2
QGIL | ≤ 0.2
AQTC | ≤ 0.2
HAFP | ≤ 0.2
SRQD | ≤ 0.2
KRIL | ≤ 0.2
YRYY | ≤ 0.2

Variant | one-hybrid fitness for binding NBS DNA
DFRT | ≤ 0.2
LIEL | ≤ 0.2
NDPR | ≤ 0.2
VSDT | ≤ 0.2
ASTC | ≤ 0.2
YYDN | ≤ 0.2
TTFY | ≤ 0.2
HELA | ≤ 0.2
RDLE | ≤ 0.2
QKDA | ≤ 0.2
RSDT | ≤ 0.2
RWPF | ≤ 0.2
VATP | ≤ 0.2
KLTV | ≤ 0.2
SSES | ≤ 0.2
DKFY | ≤ 0.2
PLVT | ≤ 0.2
CPMS | ≤ 0.2
ALKY | ≤ 0.2
QRQE | 0.229
RRHS | 0.681
WNDC | ≤ 0.2
KLNG | ≤ 0.2
WAVG | ≤ 0.2
HIPC | ≤ 0.2
RFCD | ≤ 0.2

Variant | one-hybrid fitness for binding NBS DNA
QRCG | 0.343
NVTD | ≤ 0.2
RLFL | ≤ 0.2
IRWV | ≤ 0.2
LTLH | ≤ 0.2
GFSA | ≤ 0.2
MSEC | ≤ 0.2
REEG | ≤ 0.2
EYVG | ≤ 0.2
YQKV | ≤ 0.2
DQKG | ≤ 0.2
ALSP | ≤ 0.2
RPFS | ≤ 0.2
RRSE | ≤ 0.2
LSLF | ≤ 0.2
LTNK | ≤ 0.2
SIGP | ≤ 0.2
ARYI | ≤ 0.2
DDTM | ≤ 0.2
AWPC | ≤ 0.2
RVAP | ≤ 0.2
PKHM | ≤ 0.2
HRVR | ≤ 0.2
QTDV | ≤ 0.2
PSSF | ≤ 0.2
VMEV | ≤ 0.2

Variant | one-hybrid fitness for binding NBS DNA
ATWS | ≤ 0.2
VRRG | ≤ 0.2
ARLL | ≤ 0.2
PVYV | ≤ 0.2
GLHW | ≤ 0.2
RKED | ≤ 0.2
GDES | ≤ 0.2
SKPG | ≤ 0.2
TPKM | ≤ 0.2
MQYG | ≤ 0.2
QNTK | ≤ 0.2
HHDC | ≤ 0.2
YKPM | ≤ 0.2
ILHT | ≤ 0.2
IWVR | ≤ 0.2
MHLR | ≤ 0.2
PREI | ≤ 0.2
INRL | ≤ 0.2
RHAA | ≤ 0.2
LSFL | ≤ 0.2
YNNM | ≤ 0.2
GMTG | ≤ 0.2
SLWL | ≤ 0.2
NSPA | ≤ 0.2
YTQR | ≤ 0.2
EAGS | ≤ 0.2

Variant | one-hybrid fitness for binding NBS DNA
QYLT | 0.383
QDSA | ≤ 0.2
QMSR | 0.557
PLNI | ≤ 0.2
VPMC | ≤ 0.2
MAIY | ≤ 0.2
PKLT | ≤ 0.2
CLPK | ≤ 0.2
PPNK | ≤ 0.2
TQQG | ≤ 0.2
ALDA | ≤ 0.2
MYYR | ≤ 0.2
HEKN | ≤ 0.2
VLDT | ≤ 0.2
HQCK | ≤ 0.2
NIAG | ≤ 0.2
GVST | ≤ 0.2
NSGP | ≤ 0.2
YVTS | ≤ 0.2
APGH | ≤ 0.2
SVSL | ≤ 0.2
MKTD | ≤ 0.2
PNSK | ≤ 0.2
LFRT | ≤ 0.2
LYKC | ≤ 0.2
VPYF | ≤ 0.2

Variant | one-hybrid fitness for binding NBS DNA
ATEQ | ≤ 0.2
ASRV | ≤ 0.2
NPPS | ≤ 0.2
SNGM | ≤ 0.2
YELT | ≤ 0.2
DCSA | ≤ 0.2
IHWT | ≤ 0.2
RMMD | ≤ 0.2
RARC | 0.361
QLIF | ≤ 0.2
KATG | ≤ 0.2
QLSS | 0.317
SRHD | ≤ 0.2
NEDR | ≤ 0.2
WDAM | ≤ 0.2
QDCS | ≤ 0.2
HEIS | ≤ 0.2
WYQR | ≤ 0.2
GVGE | ≤ 0.2
FESS | ≤ 0.2
NTHA | ≤ 0.2
AEKA | ≤ 0.2
LTWN | ≤ 0.2
